# Assay results as given in paper PMC4336329 (PLoS ONE, 2015).
# Screen size: about 310,000 compounds; about 2,200 (0.71%) showed an effect of 50% or more. Effects have a minus sign here. The list shows a part of the results.
# Target: human ether-à-go-go-related gene (hERG) potassium channel (human, UniProt Q12809)
# Assay: primary screen, population patch clamp on CHO cells stably expressing hERG
# Chain of human ether-à-go-go-related gene (hERG) potassium channel (Q12809 whole entry, looked up): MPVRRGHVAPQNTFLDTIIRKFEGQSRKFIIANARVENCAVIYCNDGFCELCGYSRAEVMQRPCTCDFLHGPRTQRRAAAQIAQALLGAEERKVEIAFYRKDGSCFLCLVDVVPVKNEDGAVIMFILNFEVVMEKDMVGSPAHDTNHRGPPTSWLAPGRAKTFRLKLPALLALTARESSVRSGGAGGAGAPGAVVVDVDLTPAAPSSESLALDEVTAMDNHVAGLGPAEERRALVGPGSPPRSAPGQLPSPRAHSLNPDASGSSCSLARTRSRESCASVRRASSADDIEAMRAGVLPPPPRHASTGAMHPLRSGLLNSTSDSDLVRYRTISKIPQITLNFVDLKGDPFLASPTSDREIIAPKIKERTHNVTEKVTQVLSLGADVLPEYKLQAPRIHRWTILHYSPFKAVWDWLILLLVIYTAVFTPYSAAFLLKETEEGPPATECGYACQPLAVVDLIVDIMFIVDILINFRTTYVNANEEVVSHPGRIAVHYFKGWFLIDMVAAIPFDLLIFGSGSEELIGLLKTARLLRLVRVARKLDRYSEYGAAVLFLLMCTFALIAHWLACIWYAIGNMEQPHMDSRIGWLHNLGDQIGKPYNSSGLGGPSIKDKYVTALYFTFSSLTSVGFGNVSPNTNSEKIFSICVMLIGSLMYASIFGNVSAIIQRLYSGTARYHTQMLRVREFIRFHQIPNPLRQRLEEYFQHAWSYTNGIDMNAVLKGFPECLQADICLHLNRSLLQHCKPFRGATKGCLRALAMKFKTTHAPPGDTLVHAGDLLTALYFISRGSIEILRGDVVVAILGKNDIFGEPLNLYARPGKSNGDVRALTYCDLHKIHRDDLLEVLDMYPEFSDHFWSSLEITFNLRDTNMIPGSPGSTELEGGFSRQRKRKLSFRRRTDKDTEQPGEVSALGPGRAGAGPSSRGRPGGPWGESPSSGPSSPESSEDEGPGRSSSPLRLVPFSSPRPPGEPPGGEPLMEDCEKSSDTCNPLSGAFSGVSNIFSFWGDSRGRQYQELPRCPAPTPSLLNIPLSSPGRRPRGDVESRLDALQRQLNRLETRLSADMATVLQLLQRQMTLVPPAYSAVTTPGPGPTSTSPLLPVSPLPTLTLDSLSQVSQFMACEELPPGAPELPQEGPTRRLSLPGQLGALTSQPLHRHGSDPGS
row,Compound,"hERG current change (%, negative = inhibition) at 1uM"
1,O=C(CC12CC3CC(CC(C3)C1)C2)Nc1ccc2c(c1)COC2=O,-3.99%
2,CCNc1nc(NC(C)(C)C)nc(Oc2ccc(=O)n(-c3ccccc3)n2)n1,0.403%
3,Cc1cc(C)c2sc(N)nc2c1,17%
4,Cc1ccc(/C=N/NC(=O)c2cccs2)s1,7.92%
5,CC1CC(NC(=O)CCn2c(=O)oc3ccccc32)CC(C)(C)C1 (centres unmarked),0.453%
6,Cc1cc(C)c2nc(NC(=O)c3ccc4c(=O)n5c(nc4c3)CCCCC5)sc2c1,11.9%
7,Cc1ccc(Nc2c(-c3ccc(N4CCOCC4)cc3)nc3ncccn23)c(C)c1,-0.4%
8,CCC(C)(C)C1CCC2(CC1)NC(CO)(CO)CO2 (centres unmarked),9.42%
9,O=C(COC(=O)/C=C/c1ccccc1)NCc1cccs1,-5.63%
10,COc1ccccc1CN1CCN(C(=O)COc2ccc3ccccc3c2)CC1,4.42%
11,CC1Cc2cc(/C(O)=C3/C(=O)C(=O)N(CCCn4ccnc4)C3c3cccnc3)ccc2O1 (centres unmarked),-0.337%
12,O=C(Oc1ccc(C(=S)N2CCOCC2)cc1)c1ccccc1[N+](=O)[O-],21.2%
13,Cc1cc(C(F)(F)F)c(C#N)c(=O)[nH]1,14.8%
14,Cc1cccc(NC(=S)NCCc2ccc3c(c2)OCCO3)c1C,-2.96%
15,CSCCC(=O)Nc1cc(S(=O)(=O)N2CCOCC2)ccc1N1CCN(C)CC1,10.6%
16,Cc1nc2ccc(Br)cn2c(=O)c1Cl,1.19%
17,CCCCCCSc1cc(C)nc2ncnn12,-12.7%
18,O=C(Nc1sc2c(c1C(=O)O)CCC2)c1ccco1,13.6%
19,O=C(c1cccc(Cl)c1)N1CCCC(C(=O)N2CCCCCC2)C1 (centres unmarked),-11.9%
20,COc1ccc(C2=NN(C(=O)CSc3nc(=O)n4ccc(C)cc4n3)C(c3ccc(C)cc3)C2)cc1 (centres unmarked),15.2%
21,COc1ccc(NS(=O)(=O)c2cccc(C(=O)NCCc3ccc(S(N)(=O)=O)cc3)c2)cc1,12.9%
22,CCN(CC)S(=O)(=O)c1ccc(N2CCOCC2)c(NC(=O)CCC2CCCCC2)c1,8.56%
23,CC[C@@]12C(=O)N(c3cccc(F)c3)C(=O)N1[C@H](c1ccc(Cl)cc1)[C@@H]1C(=O)N(C3CCCCC3)C(=O)[C@@H]12,-1.77%

row,Compound,"hERG current change (%, negative = inhibition) at 1uM"
1,C/C(=N\NS(=O)(=O)c1ccc(C)cc1)c1cccs1,8.33%
2,O=C(OC(C(=O)NCc1ccc2c(c1)OCO2)c1ccncc1)c1ccc(Cl)nc1 (centres unmarked),1.17%
3,COc1cc2c(cc1OC)CN(CC(=O)Nc1ccc(S(=O)(=O)N(C)C)cc1)CC2,7.85%
4,CSCCC(=O)N(C)CC1CCCN(CCc2cccc(C(F)(F)F)c2)C1 (centres unmarked),-55.1%
5,COc1ccc(C2c3c(oc4ccccc4c3=O)C(=O)N2c2ccccn2)cc1OC (centres unmarked),4.42%
6,Cc1cc(C)c2sc(N(CCN(C)C)C(=O)CCS(=O)(=O)c3ccccc3)nc2c1.Cl,13.4%
7,FC(F)(F)c1cnc2c(c1)[nH]c(=S)n2-c1ccc(Cl)cc1,18.8%
8,COc1ccc(-c2noc(CCC(=O)Nc3ccc4c(c3)OCCO4)n2)cc1,6.02%
9,Cc1cc(OC(=O)c2ccc(Cl)cc2Cl)nc(C)n1,8.06%
10,Cc1ccc(C(=O)CC(SCC(=O)O)c2ccc([N+](=O)[O-])cc2)cc1 (centres unmarked),8.62%
11,NC(=O)c1c(NC(=O)Cc2cccs2)sc2c1CCC2,8.15%
12,C=CCSc1ccc(S(=O)(=O)N2CCN(C)CC2)cn1,1.06%
13,Cc1cc2[nH]ncc2cc1NC(=S)NC(=O)c1ccccc1,6.37%
14,CC(=O)c1c(O)cc2n(c1=O)-c1ccc(Cl)cc1C2(C)C,2.96%
15,CCOC(=O)/C(=C/C=C/c1ccccc1)NC(=O)c1ccccc1,9.69%
16,S=C(c1c[nH]c2ccccc12)N1CCCC1,11.7%
17,O=C(NC1CCCCC1)C1CCN(S(=O)(=O)N2CCCCCC2)CC1,0.727%
18,CCC(C(=O)NC1CCCCC1)n1c(SCc2cccc(F)c2)nc2ccncc21 (centres unmarked),-0.406%
19,CCCc1cc(=O)oc2cc(C)cc(OCC(=O)NCCCn3ccnc3)c12,-66.7%
20,Cc1ccc(OCc2ccc(C(=O)O)o2)c([N+](=O)[O-])c1,10.7%
21,O=C(CCC(=O)N1CCN(c2ccc(F)cc2)CC1)c1ccc(F)cc1,-46.8%
22,CCn1ccnc1CNC(=O)CC1C(=O)NCCN1Cc1ccc(F)cc1Cl (centres unmarked),13.5%
23,COc1ccccc1N1CCN(Cc2ccsc2)CC1,-14.8%

row,Compound,"hERG current change (%, negative = inhibition) at 1uM"
1,NC(=O)NC(c1ccccc1)c1ccccc1F (centres unmarked),11.9%
2,Br.CCCc1nnc2n1N=C(c1ccc([N+](=O)[O-])cc1)CS2,-7.11%
3,Cc1ccc2c(c1)CCCN2C(=O)CSc1ccccc1,0.275%
4,O=c1c2c([nH]c3ccccc13)CCCCCC2,3.17%
5,COc1ccccc1-c1nnc(NC(=O)C(C)Sc2nncn2C)s1 (centres unmarked),8.37%
6,CCOC(=O)N1CCC2(CC1)CC(=O)c1c(ccc3oc(C(=O)O)c(C)c13)O2,9.47%
7,C=CCC1(O)C(=O)Nc2ccccc21 (centres unmarked),5.27%
8,COC(=O)CC1Oc2ccccc2N(Cc2ccccc2)C1=O (centres unmarked),1.42%
9,Cc1nc(C)c(-c2ccc(SCc3ccc([N+](=O)[O-])cc3)nn2)s1,1.05%
10,CC(C)(C)c1cc(C(=O)CCN2CCOCC2)cc(C(C)(C)C)c1O,1.31%
11,CC(=O)c1ccc(N2CCN(S(=O)(=O)c3ccc4c5c3CC(=O)N5CC(C)S4)CC2)cc1 (centres unmarked),17.2%
12,CCOCCn1c(CN2CCN(c3ccc(F)cc3)CC2)nc2c1c(=O)n(C)c(=O)n2C,-34.2%
13,CCOC(=O)c1ccc(N2C(=O)CC(Sc3ncccn3)C2=O)cc1 (centres unmarked),11.2%
14,CCOc1ccc2[nH]cc(C(=O)NCCc3ccccc3)c(=O)c2c1,10.4%
15,C/C(=N\Nc1ccccc1[N+](=O)[O-])c1ccc(N2CCOCC2)cc1,13.7%
16,CCc1ccc(N2CC(C(=O)OCC(=O)Nc3ccc(C(C)=O)cc3)CC2=O)cc1 (centres unmarked),0.637%
17,O=C1c2cccnc2C(=O)N1c1cccc([N+](=O)[O-])c1,9.85%
18,C/C=C\C=C/C(=O)Nc1cccc(C2=NOC3(C2)C[C@@H](C(N)=O)N(C(=O)c2ccc(Cl)cc2)C3)c1 (some centres unmarked),12.2%
19,Cc1ccc(NC(=O)CCCNC(=O)c2ccc(Cl)cc2)cc1S(=O)(=O)N1CCOCC1,-0.53%
20,Cc1c2cnn(CC(=O)NCCCN3CCCCC3)c(=O)c2c(C)n1Cc1ccccc1,12.4%
21,Cc1ccc(S(=O)(=O)Nc2ccc(NC(=O)c3cccs3)cc2)cc1,9.04%
22,Cc1cn(C)c(=O)n(C)c1=O,1.21%
23,COC(=O)Cc1[nH]n(-c2ccccc2)c(=O)c1C(C)=Nc1ccccc1,6.7%

row,Compound,"hERG current change (%, negative = inhibition) at 1uM"
1,CN1CCN(c2ccccc2NC(=O)c2ccc(-c3ccc(Cl)cc3Cl)o2)CC1,-4%
2,CCOC(=O)c1c(-c2ccc(C)o2)csc1NC(=S)NC(=O)c1cccs1,18.3%
3,CCOc1ccc(-c2noc(CCC(=O)NCCc3ccccc3)n2)cc1OC,13.6%
4,Cc1ccccc1NS(=O)(=O)c1cc2c(cc1C)NC(=O)CO2,-5.72%
5,Cc1ccc(C(C)C)c(OCc2nc(-c3nonc3N)no2)c1,9.33%
6,O=C(NCCN1CCOCC1)c1cc(-c2ccc(Cl)s2)nc2ccccc12,9.12%
7,CCCC(c1nnnn1CCOC)N1CCN(Cc2ccccc2)CC1.Cl (centres unmarked),7.12%
8,CN1C(N)=NC(=O)/C1=C/c1ccccc1F,6.33%
9,O=C(COc1ccccc1Cl)NCCCNC(=O)c1ccncc1,15.8%
10,COc1ccccc1C(=O)COC(=O)CCN=C1NS(=O)(=O)c2ccccc21,0.619%
11,COCCNC(=O)/C(C#N)=C/c1c(N2CCN(c3ccc(OC)cc3)CC2)nc2c(C)cccn2c1=O,11.5%
12,COc1cc(CC(=O)N/N=C/c2ccc([N+](=O)[O-])cc2)c([N+](=O)[O-])cc1OC,14.5%
13,O=C(O)c1ccc(Nc2ccc(Cl)c(Cl)c2)c([N+](=O)[O-])c1,14.3%
14,CC(C)N1C(=O)CCN(C=O)c2ccccc21,13.5%
15,Cc1cc(C)c(C(=O)c2ccc(C(=O)NC(C)(C)C)cc2)c(C)c1,12.3%
16,CC(C)CCNC(=O)c1nnc(Cc2ccc(Cl)cc2)o1,12%
17,O=C(c1ccc(C(F)(F)F)cc1)N1CCC(=O)N(C(COCc2ccc(Cl)cc2)Cc2ccccc2)CC1 (centres unmarked),6.71%
18,Cc1ccc2[nH]c(=O)c(-c3nc4cc(C)ccn4c3NCc3ccco3)cc2c1,2.77%
19,Cc1cccc(-n2ccc(=O)c(C(=O)O)n2)c1,15%
20,CC(=O)NCCn1c(SCC(=O)Nc2ccc(C)cc2)nc2ccccc2c1=O,3.26%
